Experimental data from publication PMC3547732 (Chemistry Central Journal, 2012).
Where two headings read alike, the source gives them in different places.

Assays:
[1] = pH 6.8
[2] = Aqueous solubility measurement (shaker, UV at 242 nm); details: for Solubility in phosphate buffer pH7 (SsolpH7): phosphate buffer (head: pH7; method: pH 6.8), 37°C, shaken 24 h

With `CC(C)c1c(C(=O)Nc2ccccc2)c(-c2ccccc2)c(-c2ccc(F)cc2)n1CC[C@@H](O)C[C@@H](O)CC(=O)[O-].CC(C)c1c(C(=O)Nc2ccccc2)c(-c2ccccc2)c(-c2ccc(F)cc2)n1CC[C@@H](O)C[C@@H](O)CC(=O)[O-].CCO.[Ca+2]` [Solvate III] the “Solubility in phosphate buffer pH7 (SsolpH7)” value (shortened to “Solubility … (SsolpH7)”) [1] was 0.292 mg/ml.

In the case of `C1CCOC1.CC(C)c1c(C(=O)Nc2ccccc2)c(-c2ccccc2)c(-c2ccc(F)cc2)n1CC[C@@H](O)C[C@@H](O)CC(=O)[O-].CC(C)c1c(C(=O)Nc2ccccc2)c(-c2ccccc2)c(-c2ccc(F)cc2)n1CC[C@@H](O)C[C@@H](O)CC(=O)[O-].[Ca+2]` [Solvate II], the “Solubility … (SsolpH7)” value [1] is reported as 0.192 mg/ml.

In the case of `CC(C)(C)O.CC(C)c1c(C(=O)Nc2ccccc2)c(-c2ccccc2)c(-c2ccc(F)cc2)n1CC[C@@H](O)C[C@@H](O)CC(=O)[O-].CC(C)c1c(C(=O)Nc2ccccc2)c(-c2ccccc2)c(-c2ccc(F)cc2)n1CC[C@@H](O)C[C@@H](O)CC(=O)[O-].CC(C)c1c(C(=O)Nc2ccccc2)c(-c2ccccc2)c(-c2ccc(F)cc2)n1CC[C@@H](O)C[C@@H](O)CC(=O)[O-].CC(C)c1c(C(=O)Nc2ccccc2)c(-c2ccccc2)c(-c2ccc(F)cc2)n1CC[C@@H](O)C[C@@H](O)CC(=O)[O-].[Ca+2].[Ca+2]` [Solvate IV], the “Solubility … (SsolpH7)” value [2] is reported as 0.225 mg/ml.

In the case of `CC(C)O.CC(C)c1c(C(=O)Nc2ccccc2)c(-c2ccccc2)c(-c2ccc(F)cc2)n1CC[C@@H](O)C[C@@H](O)CC(=O)[O-].CC(C)c1c(C(=O)Nc2ccccc2)c(-c2ccccc2)c(-c2ccc(F)cc2)n1CC[C@@H](O)C[C@@H](O)CC(=O)[O-].CC(C)c1c(C(=O)Nc2ccccc2)c(-c2ccccc2)c(-c2ccc(F)cc2)n1CC[C@@H](O)C[C@@H](O)CC(=O)[O-].CC(C)c1c(C(=O)Nc2ccccc2)c(-c2ccccc2)c(-c2ccc(F)cc2)n1CC[C@@H](O)C[C@@H](O)CC(=O)[O-].[Ca+2].[Ca+2]` [Solvate I], the “Solubility … (SsolpH7)” value [1] is reported as 0.374 mg/ml.

In the case of `CC(C)c1c(C(=O)Nc2ccccc2)c(-c2ccccc2)c(-c2ccc(F)cc2)n1CC[C@@H](O)C[C@@H](O)CC(=O)[O-].CC(C)c1c(C(=O)Nc2ccccc2)c(-c2ccccc2)c(-c2ccc(F)cc2)n1CC[C@@H](O)C[C@@H](O)CC(=O)[O-].CCCCO.[Ca+2]` [Solvate VIII], the “Solubility … (SsolpH7)” value ([2]; listed as Solvate- VIII) is reported as 0.387 mg/ml, the “Solubility … (SsolpH7)” value ([2]; listed as solvate-VIII) is reported as 0.374±0.06 mg/ml and the “solubility ranking among ATC forms” value ([2]; phosphate buffer pH 6.8, 37°C) is reported as “most soluble”.

With `CC(C)c1c(C(=O)Nc2ccccc2)c(-c2ccccc2)c(-c2ccc(F)cc2)n1CC[C@@H](O)C[C@@H](O)CC(=O)[O-].CC(C)c1c(C(=O)Nc2ccccc2)c(-c2ccccc2)c(-c2ccc(F)cc2)n1CC[C@@H](O)C[C@@H](O)CC(=O)[O-].CC(C)c1c(C(=O)Nc2ccccc2)c(-c2ccccc2)c(-c2ccc(F)cc2)n1CC[C@@H](O)C[C@@H](O)CC(=O)[O-].CC(C)c1c(C(=O)Nc2ccccc2)c(-c2ccccc2)c(-c2ccc(F)cc2)n1CC[C@@H](O)C[C@@H](O)CC(=O)[O-].CCO.O.O.[Ca+2].[Ca+2]` [Solvate VII] the “Solubility … (SsolpH7)” value [1] was 0.185 mg/ml.

In the case of `CC(C)=O.CC(C)=O.CC(C)c1c(C(=O)Nc2ccccc2)c(-c2ccccc2)c(-c2ccc(F)cc2)n1CC[C@@H](O)C[C@@H](O)CC(=O)[O-].CC(C)c1c(C(=O)Nc2ccccc2)c(-c2ccccc2)c(-c2ccc(F)cc2)n1CC[C@@H](O)C[C@@H](O)CC(=O)[O-].CC(C)c1c(C(=O)Nc2ccccc2)c(-c2ccccc2)c(-c2ccc(F)cc2)n1CC[C@@H](O)C[C@@H](O)CC(=O)[O-].CC(C)c1c(C(=O)Nc2ccccc2)c(-c2ccccc2)c(-c2ccc(F)cc2)n1CC[C@@H](O)C[C@@H](O)CC(=O)[O-].CCO.[Ca+2].[Ca+2]` [Solvate VI], the “Solubility … (SsolpH7)” value [1] is reported as 0.245 mg/ml.

In the case of `CC(C)c1c(C(=O)Nc2ccccc2)c(-c2ccccc2)c(-c2ccc(F)cc2)n1CC[C@@H](O)C[C@@H](O)CC(=O)[O-].CC(C)c1c(C(=O)Nc2ccccc2)c(-c2ccccc2)c(-c2ccc(F)cc2)n1CC[C@@H](O)C[C@@H](O)CC(=O)[O-].CO.[Ca+2]` [Solvate V], the “Solubility … (SsolpH7)” value [1] is reported as 0.341 mg/ml.
